Assay results published in PubChem BioAssay AID1347428 (National Center for Advancing Translational Sciences (NCATS), 2020).
In all, about 91,000 compounds went through this assay and about 290 (0.32%) were called active. The inconclusive results got no clear call from the source; some entries with a clear call stand among them for comparison. Calls follow the shape of the dose curve; as a rule, active = well fitted inhibition curve with a large enough effect; inconclusive = small, poorly fitted or top-dose-only effect; inactive = no such curve, though single readings can be large or run the other way. Potencies of inconclusive entries are doubtful fits and often do not repeat.

Molecular target: Single-stranded DNA cytosine deaminase (Homo sapiens) (UniProt Q9GZX7)
Assay: Primary qHTS assay for inhibitors of Activation Induced Cytidine Deaminase (AID): AID signal; also: nearly all actives have a fitted effect of over 25% in size
Details: AID deamination FRET fluorescence, UDG-coupled, 4 h; activity change, negative = inhibition: at 115 µM (top of the series)
% is scaled to controls: 0 for no effect and ±100 for the full control effect; potency is read from the fitted curve at half-maximal effect; tags tell the direction and shape of the fitted curve.

Sequence of UniProt Q9GZX7 (Q9GZX7 whole entry, looked up): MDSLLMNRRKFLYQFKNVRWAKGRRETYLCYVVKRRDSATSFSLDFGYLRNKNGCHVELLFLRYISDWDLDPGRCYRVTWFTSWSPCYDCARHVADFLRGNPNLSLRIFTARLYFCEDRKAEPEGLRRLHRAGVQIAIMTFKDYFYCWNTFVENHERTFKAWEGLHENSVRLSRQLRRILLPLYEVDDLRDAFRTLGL

Row | Structure (SMILES) | Potency | activity change, negative = inhibition
1 | COc1ccc(Cn2ccc3nc(C)c(C(=O)NCc4ccc(C)cc4)cc3c2=O)cc1 | inconclusive: 50.1 µM [inhibitor, partial curve, poor fit] | –
2 | COCCNc1nc(-c2ccccc2)c2cc(Br)ccc2n1 | – | inactive: -17.5%
3 | Cc1cccc(C)c1OCCn1c(C2CC(=O)N(Cc3ccc(F)cc3)C2)nc2ccccc21 (stereo not given) | inconclusive: 44.7 µM [inhibitor, partial curve, poor fit] | –
4 | O=C(O)/C=C/c1ccc(-c2ccc(Br)cc2Cl)o1 | – | inactive: -27.8%
5 | Cc1ccc(Cc2c(C)nc3c(-c4ccccc4)c(C)[nH]n3c2=O)cc1 | – | inactive: -5.59%
6 | CCC(CC)NCc1cccc(Oc2ccccc2)c1 | – | inactive: -6.1%
7 | CCCCN(CC)CCNC(=O)C1CCN(c2nnc(C)c3c(C)n(-c4ccc(C)cc4)nc23)CC1 | inconclusive: 56.2 µM [inhibitor, partial curve, poor fit] | –
8 | COc1ccc(-c2cc(-c3ccccc3)nc(NC(=O)CN3CCCCCC3)n2)cc1 | inconclusive: 56.2 µM [inhibitor, partial curve, poor fit] | –
9 | Cc1ccc(C(=O)/C=C/c2cccc3ccccc23)cc1[N+](=O)[O-] | – | inactive: -6.56%
10 | Cc1cc(-c2ccc(C)c(S(=O)(=O)N3c4ccccc4CC3C)c2)on1 (stereo not given) | inconclusive: 31.6 µM [inhibitor, full curve] | –
11 | Cc1nn(C)c2c1c(C(F)(F)F)cc(=O)n2CC(=O)N1CCN(c2ccccc2F)CC1 | inconclusive: 44.7 µM [inhibitor, partial curve, poor fit] | –
12 | CCN(CC)c1cc(C)c2cc(NC(=O)/C=C/c3ccccc3OC(C)C)ccc2n1 | inconclusive: 70.8 µM [inhibitor, single point] | –
13 | COc1ccc(N2CCN(CC(O)COc3ccc(C(C)C)c(C)c3)CC2)cc1 (stereo not given) | – | inactive: 18.7% [at 57.5 µM]
14 | NS(=O)(=O)c1ccc(-c2ccc(/C=N/Nc3ccc([N+](=O)[O-])cc3)o2)cc1 | inconclusive: 50.1 µM [inhibitor, partial curve, poor fit] | –
15 | COc1ccc(Cn2c(=O)c3ccccc3n3c(-c4cccc(OC)c4O)nnc23)cc1 | – | inactive: -8.89%
16 | CCCN(C(=O)Cc1c(C(=O)O)[nH]c2ccc(Cl)cc12)c1ccc(OCC)cc1 | inconclusive: 25.1 µM [inhibitor, partial curve] | –
17 | Cc1ccc2c(c1)-c1c(c(C(=O)NCCc3ccccc3)nn1C)CS2 | inconclusive: 25.1 µM [inhibitor, full curve, poor fit] | –
18 | Fc1ccc(-c2ccn[nH]2)cc1 | – | inactive: 5.7%
19 | O=C(NCc1ccccc1)c1cc2ccccc2o1 | – | inactive: -16.7%
20 | COc1ccc(OC)c2sc(N(Cc3cccnc3)C(=O)c3ccc(C(C)=O)cc3)nc12 | inconclusive: 79.4 µM [inhibitor, single point] | –
